{"source": "the supplement of paper PMC8728848", "test_in_all_cases": "glycan array binding signal (z-score within array); higher = stronger binding", "conditions_in_all_cases": "glycan notation: IUPAC condensed, linker removed", "key": {"[1]": {"molecular_target": "Fuc(a1-2)[GalNAc(a1-3)]Gal(b1-4)[Fuc(a1-3)]GlcNAc", "in_short": "(§1)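 From the Consortium for Functional Glycomics database, 3228 arrays were curated, keeping only those whose protein sequence was available. Binding is given as a within-array Z-score averaged across arrays sharing a protein sequence and across linkers. Negative Z-scores can be read as non-binding.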"}, "[2]": {"molecular_target": "Fuc(a1-2)[GalNAc(a1-4)]Gal(b1-4)GlcNAc", "in_short": "as §1"}, "[3]": {"molecular_target": "Fuc(a1-2)[GalNAc(b1-3)]Gal", "in_short": "as §1"}, "Fuc(a1-3)GlcNAc": {"molecular_target": "Fuc(a1-3)GlcNAc", "in_short": "as §1"}, "[4]": {"molecular_target": "Fuc(a1-3)[Gal(b1-4)]Glc6S", "in_short": "as §1"}, "[5]": {"molecular_target": "Fuc(a1-3)[Gal(b1-4)]GlcNAc", "in_short": "as §1"}, "[6]": {"molecular_target": "Fuc(a1-3)[Gal(b1-4)]GlcNAc(b1-2)Man(a1-3)[Fuc(a1-3)[Gal(b1-4)]GlcNAc(b1-2)Man(a1-6)]Man(b1-4)GlcNAc(b1-4)GlcNAc", "in_short": "as §1"}, "[7]": {"molecular_target": "Fuc(a1-3)[Gal(b1-4)]GlcNAc(b1-2)Man(a1-6)[Gal(b1-4)GlcNAc(b1-2)Man(a1-3)]Man(b1-4)GlcNAc(b1-4)GlcNAc", "in_short": "as §1"}, "[8]": {"molecular_target": "Fuc(a1-3)[Gal(b1-4)]GlcNAc(b1-3)Gal(b1-3)[Fuc(a1-4)]GlcNAc", "in_short": "as §1"}, "[9]": {"molecular_target": "Fuc(a1-3)[Gal(b1-4)]GlcNAc(b1-4)Gal(b1-4)[Fuc(a1-3)]GlcNAc", "in_short": "as §1"}, "[10]": {"molecular_target": "Fuc(a1-3)[Gal(b1-4)]GlcNAc(b1-4)Gal(b1-4)[Fuc(a1-3)]GlcNAc(b1-4)Gal(b1-4)[Fuc(a1-3)]GlcNAc", "in_short": "as §1"}, "[11]": {"molecular_target": "Fuc(a1-3)[Gal(b1-4)]GlcNAc6S", "in_short": "as §1"}, "[12]": {"molecular_target": "Fuc(a1-3)[Gal3S(b1-4)]Glc6S", "in_short": "as §1"}, "[13]": {"molecular_target": "Fuc(a1-3)[Gal3S(b1-4)]GlcNAc", "in_short": "as §1"}, "[14]": {"molecular_target": "Fuc(a1-3)[Gal3S(b1-4)]GlcNAc6S", "in_short": "as §1"}, "[15]": {"molecular_target": "Fuc(a1-3)[GalNAc(b1-4)]GlcNAc", "in_short": "as §1"}, "Fuc(a1-4)GlcNAc": {"molecular_target": "Fuc(a1-4)GlcNAc", "in_short": "as §1"}, "Fuc(b1-3)GlcNAc": {"molecular_target": "Fuc(b1-3)GlcNAc", "in_short": "as §1"}, "Gal(a1-2)Gal": {"molecular_target": "Gal(a1-2)Gal", "in_short": "as §1"}, "Gal(a1-3)Gal": {"molecular_target": "Gal(a1-3)Gal", "in_short": "as §1"}, "Gal(a1-3)Gal(b1-3)GlcNAc": {"molecular_target": "Gal(a1-3)Gal(b1-3)GlcNAc", "in_short": "as §1"}, "Gal(a1-3)Gal(b1-4)Glc": {"molecular_target": "Gal(a1-3)Gal(b1-4)Glc", "in_short": "as §1"}, "Gal(a1-3)Gal(b1-4)GlcNAc": {"molecular_target": "Gal(a1-3)Gal(b1-4)GlcNAc", "in_short": "as §1"}, "[16]": {"molecular_target": "Gal(a1-3)Gal(b1-4)[Fuc(a1-3)]GlcNAc", "in_short": "as §1"}, "Gal(a1-3)GalNAc": {"molecular_target": "Gal(a1-3)GalNAc", "in_short": "as §1"}, "[17]": {"molecular_target": "Gal(a1-3)[Gal(a1-4)]Gal(b1-4)GlcNAc", "in_short": "as §1"}, "Gal(a1-4)Gal(b1-4)Glc": {"molecular_target": "Gal(a1-4)Gal(b1-4)Glc", "in_short": "as §1"}, "Gal(a1-4)Gal(b1-4)GlcNAc": {"molecular_target": "Gal(a1-4)Gal(b1-4)GlcNAc", "in_short": "as §1"}, "Gal(a1-4)GlcNAc": {"molecular_target": "Gal(a1-4)GlcNAc", "in_short": "as §1"}, "Gal(a1-6)Glc": {"molecular_target": "Gal(a1-6)Glc", "in_short": "as §1"}, "Gal(b1-2)Gal": {"molecular_target": "Gal(b1-2)Gal", "in_short": "as §1"}, "Gal(b1-3)Gal": {"molecular_target": "Gal(b1-3)Gal", "in_short": "as §1"}, "Gal(b1-3)Gal(b1-4)GlcNAc": {"molecular_target": "Gal(b1-3)Gal(b1-4)GlcNAc", "in_short": "as §1"}, "Gal(b1-3)GalNAc": {"molecular_target": "Gal(b1-3)GalNAc", "in_short": "as §1"}, "[18]": {"molecular_target": "Gal(b1-3)GalNAc(b1-3)Gal(a1-4)Gal(b1-4)Glc", "in_short": "as §1"}, "[19]": {"molecular_target": "Gal(b1-3)GalNAc(b1-4)Gal(b1-4)Glc", "in_short": "as §1"}, "[20]": {"molecular_target": "Gal(b1-3)GalNAc(b1-4)[Neu5Ac(a2-3)]Gal(b1-4)Glc", "in_short": "as §1"}, "Gal(b1-3)GlcNAc": {"molecular_target": "Gal(b1-3)GlcNAc", "in_short": "as §1"}, "[21]": {"molecular_target": "Gal(b1-3)GlcNAc(b1-2)Man(a1-3)[Gal(b1-3)GlcNAc(b1-2)Man(a1-6)]Man(b1-4)GlcNAc(b1-4)GlcNAc", "in_short": "as §1"}, "[22]": {"molecular_target": "Gal(b1-3)GlcNAc(b1-3)Gal(b1-3)GlcNAc", "in_short": "as §1"}, "[23]": {"molecular_target": "Gal(b1-3)GlcNAc(b1-3)Gal(b1-4)Glc", "in_short": "as §1"}, "[24]": {"molecular_target": "Gal(b1-3)GlcNAc(b1-3)Gal(b1-4)GlcNAc", "in_short": "as §1"}, "[25]": {"molecular_target": "Gal(b1-3)[Fuc(a1-4)]GlcNAc", "in_short": "as §1"}, "[26]": {"molecular_target": "Gal(b1-3)[Fuc(a1-4)]GlcNAc(b1-3)Gal(b1-3)[Fuc(a1-4)]GlcNAc", "in_short": "as §1"}, "[27]": {"molecular_target": "Gal(b1-3)[Fuc(a1-4)]GlcNAc(b1-3)Gal(b1-4)GlcNAc", "in_short": "as §1"}}, "note": "The list shows a part of the results."}
{"binder": "SLR2P3F12 (Tachypleus tridentatus), TAL2_TACTR (protein) MEKGTPPTHDSDNWMGRAKKIGNGGWNQFQFLFFDPNGYLYAVSKDKLYKASPPQSDTDNWIARATEIGSGGWSGFKSLFFHPNGYLYAVHGQRLYKALPPVSNQD", "values": [{"measurement": "glycan array binding signal (z-score)", "setting": "[1]", "value": 0.313}, {"measurement": "glycan array binding signal (z-score)", "setting": "[2]", "value": 2.01}, {"measurement": "glycan array binding signal (z-score)", "setting": "[3]", "value": -0.327}, {"measurement": "glycan array binding signal (z-score)", "setting": "Fuc(a1-3)GlcNAc", "value": -0.301}, {"measurement": "glycan array binding signal (z-score)", "setting": "[4]", "value": -0.103}, {"measurement": "glycan array binding signal (z-score)", "setting": "[5]", "value": -0.326}, {"measurement": "glycan array binding signal (z-score)", "setting": "[6]", "value": -0.066}, {"measurement": "glycan array binding signal (z-score)", "setting": "[7]", "value": 0.218}, {"measurement": "glycan array binding signal (z-score)", "setting": "[8]", "value": -0.438}, {"measurement": "glycan array binding signal (z-score)", "setting": "[9]", "value": -0.412}, {"measurement": "glycan array binding signal (z-score)", "setting": "[10]", "value": 0.667}, {"measurement": "glycan array binding signal (z-score)", "setting": "[11]", "value": 1.11}, {"measurement": "glycan array binding signal (z-score)", "setting": "[12]", "value": -0.266}, {"measurement": "glycan array binding signal (z-score)", "setting": "[13]", "value": -0.46}, {"measurement": "glycan array binding signal (z-score)", "setting": "[14]", "value": -0.534}, {"measurement": "glycan array binding signal (z-score)", "setting": "[15]", "value": -0.329}, {"measurement": "glycan array binding signal (z-score)", "setting": "Fuc(a1-4)GlcNAc", "value": 1.42}, {"measurement": "glycan array binding signal (z-score)", "setting": "Fuc(b1-3)GlcNAc", "value": 0.809}, {"measurement": "glycan array binding signal (z-score)", "setting": "Gal(a1-2)Gal", "value": -0.288}, {"measurement": "glycan array binding signal (z-score)", "setting": "Gal(a1-3)Gal", "value": -0.2}, {"measurement": "glycan array binding signal (z-score)", "setting": "Gal(a1-3)Gal(b1-3)GlcNAc", "value": 1.14}, {"measurement": "glycan array binding signal (z-score)", "setting": "Gal(a1-3)Gal(b1-4)Glc", "value": 0.739}, {"measurement": "glycan array binding signal (z-score)", "setting": "Gal(a1-3)Gal(b1-4)GlcNAc", "value": -0.347}, {"measurement": "glycan array binding signal (z-score)", "setting": "[16]", "value": -0.316}, {"measurement": "glycan array binding signal (z-score)", "setting": "Gal(a1-3)GalNAc", "value": 0.267}, {"measurement": "glycan array binding signal (z-score)", "setting": "[17]", "value": 0.143}, {"measurement": "glycan array binding signal (z-score)", "setting": "Gal(a1-4)Gal(b1-4)Glc", "value": -0.342}, {"measurement": "glycan array binding signal (z-score)", "setting": "Gal(a1-4)Gal(b1-4)GlcNAc", "value": -0.415}, {"measurement": "glycan array binding signal (z-score)", "setting": "Gal(a1-4)GlcNAc", "value": -0.332}, {"measurement": "glycan array binding signal (z-score)", "setting": "Gal(a1-6)Glc", "value": -0.386}, {"measurement": "glycan array binding signal (z-score)", "setting": "Gal(b1-2)Gal", "value": -0.355}, {"measurement": "glycan array binding signal (z-score)", "setting": "Gal(b1-3)Gal", "value": 0.007}, {"measurement": "glycan array binding signal (z-score)", "setting": "Gal(b1-3)Gal(b1-4)GlcNAc", "value": 0.011}, {"measurement": "glycan array binding signal (z-score)", "setting": "Gal(b1-3)GalNAc", "value": -0.132}, {"measurement": "glycan array binding signal (z-score)", "setting": "[18]", "value": -0.32}, {"measurement": "glycan array binding signal (z-score)", "setting": "[19]", "value": 0.988}, {"measurement": "glycan array binding signal (z-score)", "setting": "[20]", "value": 0.354}, {"measurement": "glycan array binding signal (z-score)", "setting": "Gal(b1-3)GlcNAc", "value": 0.128}, {"measurement": "glycan array binding signal (z-score)", "setting": "[21]", "value": -0.027}, {"measurement": "glycan array binding signal (z-score)", "setting": "[22]", "value": -0.347}, {"measurement": "glycan array binding signal (z-score)", "setting": "[23]", "value": -0.266}, {"measurement": "glycan array binding signal (z-score)", "setting": "[24]", "value": 0.012}, {"measurement": "glycan array binding signal (z-score)", "setting": "[25]", "value": 0.264}, {"measurement": "glycan array binding signal (z-score)", "setting": "[26]", "value": 0.248}, {"measurement": "glycan array binding signal (z-score)", "setting": "[27]", "value": 0.593}]}
